# Results: PMC4274898
# These are yes or no findings as the source states them, for the method shown. Some results given as binding are weak or reduced against the parent protein; the word gives no strength.
# T1: ARF5 (Arabidopsis thaliana) (UniProt P93024)
# T1 sequence: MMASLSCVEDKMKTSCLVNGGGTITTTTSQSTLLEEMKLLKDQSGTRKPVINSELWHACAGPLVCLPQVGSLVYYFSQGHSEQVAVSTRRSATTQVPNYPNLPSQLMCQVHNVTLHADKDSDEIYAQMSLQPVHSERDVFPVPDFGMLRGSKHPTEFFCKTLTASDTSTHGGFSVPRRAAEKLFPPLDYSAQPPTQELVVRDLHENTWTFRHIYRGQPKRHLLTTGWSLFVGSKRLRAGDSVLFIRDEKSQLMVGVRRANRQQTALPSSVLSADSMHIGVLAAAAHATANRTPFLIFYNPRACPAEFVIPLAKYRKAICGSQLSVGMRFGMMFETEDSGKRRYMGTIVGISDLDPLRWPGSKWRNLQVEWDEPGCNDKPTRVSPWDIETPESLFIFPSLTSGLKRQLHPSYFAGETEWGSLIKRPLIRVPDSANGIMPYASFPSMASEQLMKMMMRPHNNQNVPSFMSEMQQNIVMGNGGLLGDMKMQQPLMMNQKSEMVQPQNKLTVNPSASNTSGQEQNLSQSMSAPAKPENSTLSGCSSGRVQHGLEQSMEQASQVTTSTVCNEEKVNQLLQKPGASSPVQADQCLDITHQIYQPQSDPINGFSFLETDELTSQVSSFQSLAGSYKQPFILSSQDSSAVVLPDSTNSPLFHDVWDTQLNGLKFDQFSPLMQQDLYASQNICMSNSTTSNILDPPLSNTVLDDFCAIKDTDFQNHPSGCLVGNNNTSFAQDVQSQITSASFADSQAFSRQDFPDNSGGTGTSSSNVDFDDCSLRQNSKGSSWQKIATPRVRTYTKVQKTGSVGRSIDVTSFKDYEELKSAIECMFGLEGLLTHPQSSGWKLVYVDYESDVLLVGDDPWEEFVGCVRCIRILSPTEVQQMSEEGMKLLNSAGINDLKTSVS
# T2: ARF6 (Arabidopsis thaliana) (UniProt Q9ZTX8)
# T2 sequence: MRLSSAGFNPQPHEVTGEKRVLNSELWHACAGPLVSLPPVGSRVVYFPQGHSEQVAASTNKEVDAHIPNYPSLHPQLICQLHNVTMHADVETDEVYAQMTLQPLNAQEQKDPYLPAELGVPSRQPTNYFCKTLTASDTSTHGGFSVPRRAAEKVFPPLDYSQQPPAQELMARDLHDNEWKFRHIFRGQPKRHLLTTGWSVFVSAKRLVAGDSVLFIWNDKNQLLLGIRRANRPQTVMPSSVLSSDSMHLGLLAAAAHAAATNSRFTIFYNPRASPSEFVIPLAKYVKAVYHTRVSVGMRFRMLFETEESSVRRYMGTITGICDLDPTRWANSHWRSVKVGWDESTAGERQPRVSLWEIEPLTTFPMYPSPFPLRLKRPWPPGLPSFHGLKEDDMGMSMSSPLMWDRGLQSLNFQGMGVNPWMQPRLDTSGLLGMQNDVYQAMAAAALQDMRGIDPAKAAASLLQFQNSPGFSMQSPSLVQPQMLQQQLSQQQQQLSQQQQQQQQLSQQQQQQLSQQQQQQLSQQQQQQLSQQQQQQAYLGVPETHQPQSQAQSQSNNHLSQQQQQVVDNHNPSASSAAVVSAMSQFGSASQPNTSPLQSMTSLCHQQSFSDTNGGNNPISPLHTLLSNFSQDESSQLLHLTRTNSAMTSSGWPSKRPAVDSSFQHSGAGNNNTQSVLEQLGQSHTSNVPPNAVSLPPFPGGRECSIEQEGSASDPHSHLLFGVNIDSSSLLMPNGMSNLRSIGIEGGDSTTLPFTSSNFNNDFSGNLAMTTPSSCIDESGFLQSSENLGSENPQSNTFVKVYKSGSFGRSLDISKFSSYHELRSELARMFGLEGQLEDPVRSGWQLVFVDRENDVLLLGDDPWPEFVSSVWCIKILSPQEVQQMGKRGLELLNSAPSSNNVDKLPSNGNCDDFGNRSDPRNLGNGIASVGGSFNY
# T3: ARF11 (Arabidopsis thaliana) (UniProt Q9ZPY6)
# T3 sequence: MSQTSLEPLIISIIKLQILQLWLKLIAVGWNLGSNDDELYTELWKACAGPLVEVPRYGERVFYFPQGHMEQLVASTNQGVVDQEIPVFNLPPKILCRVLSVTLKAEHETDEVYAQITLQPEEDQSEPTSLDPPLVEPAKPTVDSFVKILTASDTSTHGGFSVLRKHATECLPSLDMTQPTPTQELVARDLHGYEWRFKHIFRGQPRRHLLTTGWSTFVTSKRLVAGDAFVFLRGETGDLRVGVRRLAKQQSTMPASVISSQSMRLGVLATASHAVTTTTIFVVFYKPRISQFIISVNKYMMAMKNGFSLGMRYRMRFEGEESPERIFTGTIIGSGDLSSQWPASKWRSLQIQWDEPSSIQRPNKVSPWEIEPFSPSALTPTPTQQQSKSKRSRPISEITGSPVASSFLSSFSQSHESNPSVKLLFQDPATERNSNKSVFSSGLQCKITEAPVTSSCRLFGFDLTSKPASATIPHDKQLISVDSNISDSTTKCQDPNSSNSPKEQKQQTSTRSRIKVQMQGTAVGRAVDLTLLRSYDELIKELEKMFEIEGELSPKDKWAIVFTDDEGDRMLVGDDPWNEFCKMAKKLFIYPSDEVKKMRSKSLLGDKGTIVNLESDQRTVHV
# B1: Aux/IAA33 (protein, UniProt Q9FKM7 1-171)
# chain: MNSFEPQSQDSLQRRFHQDNSTTQQPRDTTTPFIPKPASKNHNNSNSSSGAAGRSFQGFGLNVEDDLVSSVVPPVTVVLEGRSICQRISLDKHGSYQSLASALRQMFVDGADSTDDLDLSNAIPGHLIAYEDMENDLLLAGDLTWKDFVRVAKRIRILPVKGNTRQVKRNE
# B2: Aux/IAA34 (protein, UniProt Q9C5X0 1-185)
# chain: MYCSDPPHPLHLVASDKQQKDHKLILSWKKPTMDSDPLGVFPNSPKYHPYYSQTTEFGGVIDLGLSLRTIQHEIYHSSGQRYCSNEGYRRKWGYVKVTMDGLVVGRKVCVLDHGSYSTLAHQLEDMFGMQSVSGLRLFQMESEFCLVYRDEEGLWRNAGDVPWNEFIESVERLRITRRNDAVLPF
# B3: Aux/IAA4 (protein, UniProt P33077 1-186)
# chain: MEKVDVYDELVNLKATELRLGLPGTEETVSCGKSNKRVLPEATEKEIESTGKTETASPPKAQIVGWPPVRSYRKNNVQTKKSESEGQGNYVKVSMDGAPYLRKIDLTMYKQYPELMKSLENMFKFSVGEYFEREGYKGSDFVPTYEDKDGDWMLVGDVPWEMFVSSCKRLRIMKGSEVKGLGCGGL
# B4: Aux/IAA5 (protein, UniProt P33078 1-163)
# chain: MANESNNLGLEITELRLGLPGDIVVSGESISGKKRASPEVEIDLKCEPAKKSQVVGWPPVCSYRRKNSLERTKSSYVKVSVDGAAFLRKIDLEMYKCYQDLASALQILFGCYINFDDTLKESECVPIYEDKDGDWMLAGDVPWEMFLGSCKRLRIMKRSCNRG
# Target: T1, ARF5 (Arabidopsis thaliana)
# Assay: two-hybrid; S. cerevisiae AH109 co-transformed with pGBKT7-ARF (bait) and pGADT7-Aux/IAA (prey); growth on SD/-Ade-His-Leu-Trp against SD/-Leu/-Trp; at least 10 independent colonies; serial dilutions for strength
row,Binder,binding
1,B1,binds
2,B2,binds
3,B3,binds
4,B4,binds

# Target: T2, ARF6 (Arabidopsis thaliana)
# Assay: as above
row,Binder,binding
1,B1,binds
2,B2,binds
3,B3,binds
4,B4,binds

# Target: T3, ARF11 (Arabidopsis thaliana)
# Assay: as above
row,Binder,binding
1,B1,no binding
2,B2,no binding
3,B3,no binding
4,B4,no binding
